# According to the supplement of paper PMC8728848:
# Some of the results follow.
# B1: mCC1-Hexahis-Precomplexed (Mus musculus), P31809 (protein)
# chain: MELASAHLHKGQVPWGGLLLTASLLASWSPATTAEVTIEAVPPQVAEDNNVLLLVHNLPLALGAFAWYKGNTTAIDKEIARFVPNSNMNFTGQAYSGREIIYSNGSLLFQMITMKDMGVYTLDMTDENYRRTQATVRFHVHPILLKPNITSNNSNPVEGDDSVSLTCDSYTDPDNINYLWSRNGESLSEGDRLKLSEGNRTLTLLNVTRNDTGPYVCETRNPVSVNRSDPFSLNIIYGPDTPIISPSDIYLHPGSNLNLSCHAASNPPAQYFWLINEKPHASSQELFIPNITTNNSGTYTCFVNNSVTGLSRTTVKNITVLEPVTQPFLQVTNTTVKELDSVTLTCLSNDIGANIQWLFNSQSLQLTERMTLSQNNSILRIDPIKREDAGEYQCEISNPVSVRRSNSIKLDIIFDPTQGGLSDGHHHHHH
# Assays:
# Experiment in all cases: glycan array binding signal (z-score within array); higher = stronger binding
# Details in all cases: glycan notation: IUPAC condensed, linker removed
# [1] = biological target: GlcNAc(b1-2)[GlcNAc(b1-6)]Man(a1-6)[GlcNAc(b1-4)][GlcNAc(b1-2)Man(a1-3)]Man(b1-4)GlcNAc(b1-4)GlcNAc
# In short: (§1)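 Glycan array data were curated from 3228 arrays in the Consortium for Functional Glycomics database and kept only where the protein sequence was available. Glycan names were converted to IUPAC-condensed notation, and columns mapping to the same glycan were averaged. The binding signal is a within-array Z-score, averaged across arrays of the same protein sequence at different concentrations or buffers and across linkers. Negative Z-scores can be read as non-binding.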
# [2] = biological target: GlcNAc(b1-3)Fuc
# In short: as §1
# [3] = biological target: GlcNAc(b1-3)Gal
# In short: as §1
# [4] = biological target: GlcNAc(b1-3)Gal(b1-3)GalNAc
# In short: as §1
# [5] = biological target: GlcNAc(b1-3)Gal(b1-4)Glc
# In short: as §1
# [6] = biological target: GlcNAc(b1-3)Gal(b1-4)GlcNAc
# In short: as §1
# [7] = biological target: GlcNAc(b1-3)Gal(b1-4)GlcNAc(b1-2)Man(a1-3)[GlcNAc(b1-3)Gal(b1-4)GlcNAc(b1-2)Man(a1-6)]Man(b1-4)GlcNAc(b1-4)GlcNAc
# In short: as §1
# [8] = biological target: GlcNAc(b1-3)Gal(b1-4)GlcNAc(b1-2)Man(a1-3)[GlcNAc(b1-3)Gal(b1-4)GlcNAc(b1-2)Man(a1-6)]Man(b1-4)GlcNAc(b1-4)[Fuc(a1-6)]GlcNAc
# In short: as §1
# [9] = biological target: GlcNAc(b1-3)Gal(b1-4)GlcNAc(b1-2)[GlcNAc(b1-3)Gal(b1-4)GlcNAc(b1-6)]Man(a1-6)[GlcNAc(b1-3)Gal(b1-4)GlcNAc(b1-2)Man(a1-3)]Man(b1-4)GlcNAc(b1-4)GlcNAc
# In short: as §1
# [10] = biological target: GlcNAc(b1-3)Gal(b1-4)GlcNAc(b1-3)Gal(b1-4)GlcNAc
# In short: as §1
# [11] = biological target: GlcNAc(b1-3)Gal(b1-4)GlcNAc(b1-3)Gal(b1-4)GlcNAc(b1-2)Man(a1-3)[GlcNAc(b1-3)Gal(b1-4)GlcNAc(b1-3)Gal(b1-4)GlcNAc(b1-2)Man(a1-6)]Man(b1-4)GlcNAc(b1-4)GlcNAc
# In short: as §1
# [12] = biological target: GlcNAc(b1-3)Gal(b1-4)GlcNAc(b1-3)Gal(b1-4)GlcNAc(b1-2)Man(a1-3)[GlcNAc(b1-3)Gal(b1-4)GlcNAc(b1-3)Gal(b1-4)GlcNAc(b1-2)Man(a1-6)]Man(b1-4)GlcNAc(b1-4)[Fuc(a1-6)]GlcNAc
# In short: as §1
# [13] = biological target: GlcNAc(b1-3)Gal(b1-4)GlcNAc(b1-3)Gal(b1-4)GlcNAc(b1-2)[GlcNAc(b1-3)Gal(b1-4)GlcNAc(b1-3)Gal(b1-4)GlcNAc(b1-6)]Man(a1-6)[GlcNAc(b1-3)Gal(b1-4)GlcNAc(b1-3)Gal(b1-4)GlcNAc(b1-2)Man(a1-3)]Man(b1-4)GlcNAc(b1-4)[Fuc(a1-6)]GlcNAc
# In short: as §1
# [14] = biological target: GlcNAc(b1-3)Gal(b1-4)GlcNAc(b1-3)Gal(b1-4)GlcNAc(b1-3)Gal(b1-4)GlcNAc(b1-2)Man(a1-3)[GlcNAc(b1-3)Gal(b1-4)GlcNAc(b1-3)Gal(b1-4)GlcNAc(b1-3)Gal(b1-4)GlcNAc(b1-2)Man(a1-6)]Man(b1-4)GlcNAc(b1-4)GlcNAc
# In short: as §1
# [15] = biological target: GlcNAc(b1-3)Gal(b1-4)GlcNAc(b1-3)Gal(b1-4)GlcNAc(b1-3)Gal(b1-4)GlcNAc(b1-2)Man(a1-3)[GlcNAc(b1-3)Gal(b1-4)GlcNAc(b1-3)Gal(b1-4)GlcNAc(b1-3)Gal(b1-4)GlcNAc(b1-2)Man(a1-6)]Man(b1-4)GlcNAc(b1-4)[Fuc(a1-6)]GlcNAc
# In short: as §1
# [16] = biological target: GlcNAc(b1-3)Gal(b1-4)GlcNAc(b1-3)Gal(b1-4)GlcNAc(b1-3)Gal(b1-4)GlcNAc(b1-2)[GlcNAc(b1-3)Gal(b1-4)GlcNAc(b1-3)Gal(b1-4)GlcNAc(b1-3)Gal(b1-4)GlcNAc(b1-6)]Man(a1-6)[GlcNAc(b1-3)Gal(b1-4)GlcNAc(b1-3)Gal(b1-4)GlcNAc(b1-3)Gal(b1-4)GlcNAc(b1-2)Man(a1-3)]Man(b1-4)GlcNAc(b1-4)[Fuc(a1-6)]GlcNAc
# In short: as §1
# [17] = biological target: GlcNAc(b1-3)Gal(b1-4)GlcNAc(b1-3)Gal(b1-4)GlcNAc(b1-3)Gal(b1-4)GlcNAc(b1-3)Gal(b1-4)GlcNAc(b1-2)Man(a1-3)[GlcNAc(b1-3)Gal(b1-4)GlcNAc(b1-3)Gal(b1-4)GlcNAc(b1-3)Gal(b1-4)GlcNAc(b1-3)Gal(b1-4)GlcNAc(b1-2)Man(a1-6)]Man(b1-4)GlcNAc(b1-4)GlcNAc
# In short: as §1
# [18] = biological target: GlcNAc(b1-3)Gal(b1-4)GlcNAc(b1-3)Gal(b1-4)GlcNAc(b1-3)Gal(b1-4)GlcNAc(b1-3)Gal(b1-4)GlcNAc(b1-2)Man(a1-3)[GlcNAc(b1-3)Gal(b1-4)GlcNAc(b1-3)Gal(b1-4)GlcNAc(b1-3)Gal(b1-4)GlcNAc(b1-3)Gal(b1-4)GlcNAc(b1-2)Man(a1-6)]Man(b1-4)GlcNAc(b1-4)[Fuc(a1-6)]GlcNAc
# In short: as §1
# [19] = biological target: GlcNAc(b1-3)Gal(b1-4)GlcNAc(b1-3)Gal(b1-4)GlcNAc(b1-3)Gal(b1-4)GlcNAc(b1-3)Gal(b1-4)GlcNAc(b1-2)[GlcNAc(b1-3)Gal(b1-4)GlcNAc(b1-3)Gal(b1-4)GlcNAc(b1-3)Gal(b1-4)GlcNAc(b1-3)Gal(b1-4)GlcNAc(b1-6)]Man(a1-6)[GlcNAc(b1-3)Gal(b1-4)GlcNAc(b1-3)Gal(b1-4)GlcNAc(b1-3)Gal(b1-4)GlcNAc(b1-3)Gal(b1-4)GlcNAc(b1-2)Man(a1-3)]Man(b1-4)GlcNAc(b1-4)[Fuc(a1-6)]GlcNAc
# In short: as §1
binder,measurement,setting,value
B1,glycan array binding signal (z-score),[1],-0.12
same,glycan array binding signal (z-score),[2],-0.287
same,glycan array binding signal (z-score),[3],-0.15
same,glycan array binding signal (z-score),[4],-0.159
same,glycan array binding signal (z-score),[5],-0.227
same,glycan array binding signal (z-score),[6],-0.246
same,glycan array binding signal (z-score),[7],-0.184
same,glycan array binding signal (z-score),[8],-0.076
same,glycan array binding signal (z-score),[9],0.021
same,glycan array binding signal (z-score),[10],-0.21
same,glycan array binding signal (z-score),[11],2.77
same,glycan array binding signal (z-score),[12],-0.161
same,glycan array binding signal (z-score),[13],0.06
same,glycan array binding signal (z-score),[14],-0.143
same,glycan array binding signal (z-score),[15],-0.218
same,glycan array binding signal (z-score),[16],0.035
same,glycan array binding signal (z-score),[17],-0.228
same,glycan array binding signal (z-score),[18],-0.25
same,glycan array binding signal (z-score),[19],0.179
